The full ranking holds about 2,900 compounds; the median of “NF-kB SEAP reporter activity, fold change vs agonist alone” is about 0.99, and the highest 2% start at about 2.6. The list shows a part of the results.
What was measured:
RAW-Dual [1] = assay: NF-kB SEAP reporter activity, fold change vs agonist alone; higher = enhanced NF-kB activity
Summary of the method: (§1)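 Reporter activity is given as fold change relative to agonist-alone wells. To measure it, 50 nL of library stock was pin-tooled onto RAW-Dual macrophages (50,000 cells/well, DMEM, 384-well plates), a PRR agonist followed 1 h later, and cells stayed at 37 °C, 5% CO2. Twenty hours on, supernatant was assayed for IRF (QuantiLuc luminescence) and NF-κB (QuantiBlue, 620 nm absorbance), and wells under 70% of agonist-control IncuCyte confluency in both mask sets were marked cytotoxic.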

RAW-Dual [2] = assay: NF-kB SEAP reporter activity, fold change vs agonist alone; cytotoxicity flag (confluency mask): not cytotoxic; higher = enhanced NF-kB activity
Summary of the method: as §1

RAW-Dual [3] = assay: NF-kB SEAP reporter activity, fold change vs agonist alone; cytotoxicity flag (confluency mask): cytotoxic (confluency <70% of control); higher = enhanced NF-kB activity
Summary of the method: as §1

[4] = library stock concentration (final ~1000-fold dilution): 10 mM, cytotoxicity flag (confluency mask): not cytotoxic, agonist: Imiquimod (TLR7) […]
[5] = library stock concentration (final ~1000-fold dilution): 10 mM, cytotoxicity flag (confluency mask): not cytotoxic, agonist: MPLA (TLR4) […]
[6] = agonist: ODN 1826 (TLR9) 0.5 ug/mL
[7] = agonist: Pam2CSK4 (TLR2/6) 0.1 ug/mL
[8] = agonist: Pam3CSK4 (TLR2/1) 0.1 ug/mL

Question: What does the source list for C=CC(=O)N1CC(Nc2ncnc3[nH]ccc23)CCC1C (stereo not drawn)?
Answer: NF-kB SEAP reporter activity (RAW-Dual [1]; [4]): 0.572; NF-kB SEAP reporter activity (RAW-Dual [1]; [5]): 0.785

Question: What does the source list for C=CC(=O)N1CC(Nc2ncnc3[nH]ccc23)CCC1C (stereo not drawn) (library stock concentration (final ~1000-fold dilution): 10 mM)?
Answer: NF-kB SEAP reporter activity (RAW-Dual [2]; agonist: LPS (TLR4) 0.1 ug/mL): 0.655; NF-kB SEAP reporter activity (RAW-Dual [2]; [6]): 0.682; NF-kB SEAP reporter activity (RAW-Dual [2]; [7]): 0.56; NF-kB SEAP reporter activity (RAW-Dual [2]; [8]): 0.738

Question: For Cl.Cl.N/C(=N\OCC(O)CN1CCCCC1)c1cccnc1 (stereo not drawn) (library stock concentration (final ~1000-fold dilution): 10 mM), which “NF-kB SEAP reporter activity” value (RAW-Dual [2]; agonist: LPS (TLR4) 0.1 ug/mL) is on record?
Answer: The value was 1.1.

Question: What about the “NF-kB SEAP reporter activity” value (RAW-Dual [2]; [6]) of the same molecule?
Answer: The value was 0.949.

Question: What about the “NF-kB SEAP reporter activity” value (RAW-Dual [2]; [7]) of the same molecule?
Answer: The value was 1.15.

Question: And the “NF-kB SEAP reporter activity” value (RAW-Dual [2]; [8])?
Answer: Its value is 1.09.

Question: With Cl.Cl.N/C(=N\OCC(O)CN1CCCCC1)c1cccnc1 (stereo not drawn) as the molecule, how does the “NF-kB SEAP reporter activity” value (RAW-Dual [1]; [4]) read?
Answer: The value was 0.94.

Question: What about the “NF-kB SEAP reporter activity” value (RAW-Dual [1]; [5]) of the same molecule?
Answer: Its value is 1.08.

Question: C=C1CC[C@@H]2[C@](C)(CO)[C@H](O)CC[C@@]2(C)[C@@H]1/C=C/C1=CCOC1=O was tested. Which “NF-kB SEAP reporter activity” value (RAW-Dual [1]; [4]) did it give?
Answer: Its value is 0.706.

Question: And the “NF-kB SEAP reporter activity” value (RAW-Dual [1]; [5])?
Answer: Its value is 0.901.

Question: For C=C1CC[C@@H]2[C@](C)(CO)[C@H](O)CC[C@@]2(C)[C@@H]1/C=C/C1=CCOC1=O (library stock concentration (final ~1000-fold dilution): 10 mM), which “NF-kB SEAP reporter activity” value (RAW-Dual [2]; agonist: LPS (TLR4) 0.1 ug/mL) is on record?
Answer: Its value is 0.755.

Question: What about the “NF-kB SEAP reporter activity” value (RAW-Dual [2]; [6]) of the same molecule?
Answer: Its value is 0.721.

Question: And the “NF-kB SEAP reporter activity” value (RAW-Dual [2]; [7])?
Answer: Its value is 0.5.

Question: What about the “NF-kB SEAP reporter activity” value (RAW-Dual [2]; [8]) of the same molecule?
Answer: The value was 0.597.

Question: With O=C(O)P(=O)(O)O (library stock concentration (final ~1000-fold dilution): 10 mM water) as the molecule, how does the “NF-kB SEAP reporter activity” value (RAW-Dual [2]; agonist: LPS (TLR4) 0.1 ug/mL) read?
Answer: Its value is 1.18.

Question: And the “NF-kB SEAP reporter activity” value (RAW-Dual [2]; [6])?
Answer: Its value is 1.18.

Question: What about the “NF-kB SEAP reporter activity” value (RAW-Dual [2]; [7]) of the same molecule?
Answer: Its value is 1.22.

Question: What about the “NF-kB SEAP reporter activity” value (RAW-Dual [2]; [8]) of the same molecule?
Answer: The value was 1.08.

Question: With O=C(O)P(=O)(O)O as the molecule, how does the “NF-kB SEAP reporter activity” value (RAW-Dual [1]; library stock concentration (final ~1000-fold dilution): 10 mM water, cytotoxicity flag (confluency mask): not cytotoxic, agonist: Imiquimod (TLR7) […]) read?
Answer: Its value is 0.97.

Question: What about the “NF-kB SEAP reporter activity” value (RAW-Dual [1]; library stock concentration (final ~1000-fold dilution): 10 mM water, cytotoxicity flag (confluency mask): not cytotoxic, agonist: MPLA (TLR4) […]) of the same molecule?
Answer: Its value is 1.04.

Question: How did the “NF-kB SEAP reporter activity” value (RAW-Dual [2]; agonist: LPS (TLR4) 0.1 ug/mL) turn out when CC(C)(C)NS(=O)(=O)c1cncc(-c2cc(F)c3nc(N)nn3c2)c1 (library stock concentration (final ~1000-fold dilution): 10 mM) was run?
Answer: Its value is 0.922.

Question: And the “NF-kB SEAP reporter activity” value (RAW-Dual [2]; [6])?
Answer: The value was 1.09.

Question: What about the “NF-kB SEAP reporter activity” value (RAW-Dual [2]; [7]) of the same molecule?
Answer: Its value is 0.994.

Question: And the “NF-kB SEAP reporter activity” value (RAW-Dual [2]; [8])?
Answer: Its value is 1.03.

Question: Which “NF-kB SEAP reporter activity” value (RAW-Dual [1]; [4]) does the source give for CC(C)(C)NS(=O)(=O)c1cncc(-c2cc(F)c3nc(N)nn3c2)c1 here?
Answer: The value was 0.918.

Question: What about the “NF-kB SEAP reporter activity” value (RAW-Dual [1]; [5]) of the same molecule?
Answer: Its value is 1.11.

Question: What does the source list for O=C1c2c(O)cc(O)cc2OC(c2cc(O)c(O)c(O)c2)C1O (stereo not drawn) (library stock concentration (final ~1000-fold dilution): 10 mM)?
Answer: NF-kB SEAP reporter activity (RAW-Dual [2]; agonist: LPS (TLR4) 0.1 ug/mL): 0.954; NF-kB SEAP reporter activity (RAW-Dual [2]; [6]): 1.02; NF-kB SEAP reporter activity (RAW-Dual [2]; [7]): 0.798; NF-kB SEAP reporter activity (RAW-Dual [2]; [8]): 0.657

Question: What does the source list for O=C1c2c(O)cc(O)cc2OC(c2cc(O)c(O)c(O)c2)C1O (stereo not drawn)?
Answer: NF-kB SEAP reporter activity (RAW-Dual [1]; [4]): 0.946; NF-kB SEAP reporter activity (RAW-Dual [1]; [5]): 1.07

Question: Which results are given for COc1cc(OC)cc(N(CCNC(C)C)c2ccc3ncc(-c4cnn(C)c4)nc3c2)c1?
Answer: NF-kB SEAP reporter activity (RAW-Dual [1]; library stock concentration (final ~1000-fold dilution): 10 mM, cytotoxicity flag (confluency mask): cytotoxic (confluency <70% of control), agonist: Imiquimod (TLR7) […]): 1.76; NF-kB SEAP reporter activity (RAW-Dual [1]; library stock concentration (final ~1000-fold dilution): 10 mM, cytotoxicity flag (confluency mask): cytotoxic (confluency <70% of control), agonist: MPLA (TLR4) […]): 2.21

Question: How did the “NF-kB SEAP reporter activity” value (RAW-Dual [3]; agonist: LPS (TLR4) 0.1 ug/mL) turn out when COc1cc(OC)cc(N(CCNC(C)C)c2ccc3ncc(-c4cnn(C)c4)nc3c2)c1 (library stock concentration (final ~1000-fold dilution): 10 mM) was run?
Answer: The value was 3.64.

Question: And the “NF-kB SEAP reporter activity” value (RAW-Dual [3]; [6])?
Answer: The value was 0.427.

Question: And the “NF-kB SEAP reporter activity” value (RAW-Dual [3]; [7])?
Answer: The value was 1.06.

Question: What about the “NF-kB SEAP reporter activity” value (RAW-Dual [3]; [8]) of the same molecule?
Answer: Its value is 1.57.

Question: O=c1nc(N2CCOCC2)oc2c(-c3cccc4c3sc3ccccc34)cccc12 (library stock concentration (final ~1000-fold dilution): 10 mM) was tested. Which “NF-kB SEAP reporter activity” value (RAW-Dual [2]; agonist: LPS (TLR4) 0.1 ug/mL) did it give?
Answer: Its value is 3.45.

Question: And the “NF-kB SEAP reporter activity” value (RAW-Dual [2]; [6])?
Answer: The value was 1.08.

Question: What about the “NF-kB SEAP reporter activity” value (RAW-Dual [2]; [7]) of the same molecule?
Answer: The value was 0.718.

Question: What about the “NF-kB SEAP reporter activity” value (RAW-Dual [2]; [8]) of the same molecule?
Answer: The value was 1.38.

Question: For O=c1nc(N2CCOCC2)oc2c(-c3cccc4c3sc3ccccc34)cccc12, which “NF-kB SEAP reporter activity” value (RAW-Dual [1]; [4]) is on record?
Answer: Its value is 1.1.

Question: And the “NF-kB SEAP reporter activity” value (RAW-Dual [1]; [5])?
Answer: The value was 1.85.

Reference: the supplement of paper PMC10037445
